About 540 (0.36%) of roughly 150,000 compounds showed an effect of 50% or more. Some of the results follow.

As a reminder, the % Inhibition is the change of the read-out against control, counted positive when it falls.

The assay deals with Plasmodium falciparum. Nature of the assay: Primary screen in NF54 nanoGlo assay, in single point, at 2uM, 72h; a lower Z score goes with more inhibition. In kind it is functional, Erythrocyte. Conditions: timepoint 72 hour.
As for `CCN1CCN(C(=O)c2ccc(CN3C(=O)COc4ccc(C(=O)COc5ccccc5C)cc43)o2)CC1`, the “% Inhibition” value is listed as -7% and the Z score is 0.83.
As to `c1nc(NCc2cc3n(n2)CCCN(C2CCCCC2)C3)c2nc[nH]c2n1`, the “% Inhibition” value was -10% and the Z score came to 2.15.
As for `CCn1ncc(-c2cc(C(F)F)nc(NC[C@H](C)Cn3ccc(C)n3)n2)c1C`, the “% Inhibition” value is 2% and the Z score was -0.32.
The like results for `CCOC(=O)c1cccnc1-c1cccc(C(=O)N2CCNC(=O)CC2)c1` were, in that order, -9% and 1.82.
The like results for `CC(C)(C)c1noc(CNC(=O)[C@@H]2CC[C@H](C(=O)O)C2)n1` were, in that order, -4% and 0.64.
Take `CCc1nnc(N2CCC(OCc3cccnc3)CC2)o1`: the “% Inhibition” value is given as -2% and the Z score is 0.34.
The like results for `CCn1c(CN2CCC[C@@H]2C(=O)O)nc2cc(F)ccc21` were, in that order, 1% and -0.21.
The like results for `O=C(N[C@@H](c1ccsc1)c1cccs1)c1cccc2ccccc12` were, in that order, -9% and 1.59.
The like results for `CCc1nnc(CNC(=O)Nc2ccc3c(c2)C(=O)C[C@](C)(CC)O3)o1` were, in that order, -8% and 1.55.
With `CCC(CC)c1nc(C#N)c(N2CCN(c3cccc(Cl)c3)CC2)o1`, the “% Inhibition” value is given as -8% and the Z score was found to be 1.65.
Consider `CN(CC1(CO)CC1)C(=O)c1cnn2cccc(Br)c12`, for which the “% Inhibition” value stood at 0% and the Z score is recorded as 0.07.
The matching figures for `O=C(Nc1ccccn1)c1cc2n(n1)CCCO2`: -20% and 3.07.
The like results for `CC(C)[C@@H]1C[C@H]1CNC(=O)NCC1C(C)(C)C1(F)F` (some centres not stated) were, in that order, -9% and 1.74.
The like results for `Cc1cc(NC(=O)C(=O)NC[C@H](C)O)no1` were, in that order, 6% and -0.8.
With `O=C(N[C@H]1CCc2ccccc21)c1cn[nH]c1C(F)(F)F`, the “% Inhibition” value is reported as 4% and the Z score is -0.47.
Consider `O=C(NCCCn1cccn1)c1ccc2[nH]c3c(c2c1)CN(C(=O)C1CCC1)CC3`, for which the “% Inhibition” value is on record as -3% and the Z score is on record as 0.48.
The like results for `FC(F)(F)c1cc(CNC2CCCCC2)no1` were, in that order, 11% and -1.43.
On to `CCC1(S(=O)(=O)NC(=O)C2CCCC(OC)C2)CC1` (configuration not stated), for which the “% Inhibition” value is on record as -14% and the Z score turned out to be 1.39.
The matching figures for `O=C(NC[C@@H](O)Cc1ccccc1F)c1cc(Br)c2nccn2c1`: -2% and 0.33.
The matching figures for `O=C(Cn1nc2c(N3CCCCCC3)nccn2c1=O)NCCC1=CCCCC1`: -9% and 0.84.
The like results for `CCNC(=O)[C@@H]1C[C@H](N)CN1C(=O)c1scc2c1CCCC2` were, in that order, -1% and 0.18.
With `CCn1ccc(C(=O)Nc2cc(-c3cc4ccc(OC)cc4n3CC)n[nH]2)n1`, the “% Inhibition” value worked out at 7% and the Z score is -0.74.
The like results for `Cn1nc(C(=O)N2CCC[C@@]3(CCC(=O)N(CCc4c[nH]cn4)C3)C2)ccc1=O` were, in that order, -5% and 0.74.
For the compound `COc1cc2c(cc1OC)CN(C(=O)C1(c3ccc(C)cc3)CCOCC1)CC2`, the “% Inhibition” value is recorded as 6% and the Z score is reported as -0.65.
The like results for `Cc1nc(C(=O)N(Cc2cc(F)ccc2F)C2CCCC2)c(=O)[nH]c1C` were, in that order, -2% and 0.24.
The matching figures for `Clc1cccc(CNCc2cccnc2-n2cccn2)c1`: 19% and -2.24.
With `CC(C)(C)n1c(=O)c2ccc(Cl)cc2n1CC(=O)NCc1ccc(F)cc1`, the “% Inhibition” value was 1% and the Z score was -0.22.
The like results for `CC(C)CN1CCO[C@@H](COC(=O)c2cn3ccnc3s2)C1` were, in that order, -10% and 1.07.
Take `Cn1cccc1C(=O)C(=O)NC[C@@]1(C)CCCO1`: the “% Inhibition” value is -2% and the Z score turned out to be 0.28.
The like results for `OCc1ccc(-c2ncnn2-c2ccc3c(c2)CCC3)o1` were, in that order, -5% and 0.48.
The matching figures for `O=C(C1CCCO1)N1CCCCC1c1nc2ccccc2o1` (configuration not stated): 1% and -0.11.
Take `COc1ccc(C(NS(=O)(=O)N2CCC(C)CC2)[C@H]2C[C@@H](O)C2)cn1` (some centres not stated): the “% Inhibition” value is reported as -2% and the Z score worked out at 0.2.
With `COCC1(NC(=O)CCS(C)(=O)=O)CCCC1`, the “% Inhibition” value is recorded as -10% and the Z score is 1.24.
For `COc1cc2c(cc1OC)CC(=O)N(CC(=O)Nc1cc(F)c(F)c(F)c1)C=C2`, the “% Inhibition” value is listed as -3% and the Z score came out at 0.3.
The like results for `O=C(O)c1ccc(-n2ccnc2-c2ccc(O)cc2)c(F)c1` were, in that order, 0% and 0.06.
The matching figures for `C=Cc1cccc(-c2cn(CC3(O)CCCCC3)nn2)c1`: -13% and 1.43.
The matching figures for `O=C1CN(C(=O)CN2CCC[C@H]2c2ccc3c(c2)OCCCO3)c2ccccc2N1`: -2% and 0.46.
Take `CO[C@@]12CC[C@@H](NC(C)=O)C[C@@H]1N(C(=O)Cc1ccc(O)c(Cl)c1)CC2`: the “% Inhibition” value is on record as -5% and the Z score turned out to be 0.63.
The like results for `CC1(O)CCN(C[C@@H](C(=O)OC(C)(C)C)c2ccccc2)CC1` were, in that order, -6% and 1.22.
The matching figures for `CC(C)CCO[C@@H]1CCCC[C@H]1NC(=O)C1CCc2cnn(C)c2C1` (some centres not stated): -15% and 2.2.
With `Cc1onc(C(=O)N2CCCCCCNC(=O)[C@@H]3CCCC[C@@H]32)c1Cn1cccn1`, the “% Inhibition” value is on record as -7% and the Z score amounted to 0.98.
As to `Cc1noc(C)c1CN(C)CN1C(=O)NC(C2CC2)(C2CC2)C1=O`, the “% Inhibition” value was -8% and the Z score is reported as 1.13.
For `CCC1(CC)CCCN(Cc2nnc(C)n2C)CC1`, the “% Inhibition” value is reported as -10% and the Z score is recorded as 1.4.
The matching figures for `CC1=C(C(=O)NCCc2csc(-c3ncccn3)n2)OCCO1`: 1% and -0.23.
The matching figures for `COCCNCc1cc(Cl)ccc1OC`: -4% and 0.45.
The matching figures for `CCOC(=O)C1=C(c2ccccc2)SC(=C2C(=S)C(C)(C)Nc3cc(C)ccc32)S1`: -2% and 0.37.
Take `NC(=O)c1csc(-c2cc(N)nc3[nH]ccc23)n1`: the “% Inhibition” value is on record as 2% and the Z score is given as -0.4.
The like results for `C[C@H](NC(=O)c1cc(F)ccc1O)C(=O)N1CCCCC1` were, in that order, -8% and 0.86.
As to `CC(C(=O)NCC1COc2ccccc2O1)N1C2CCC1CC(O)C2` (configuration not stated), the “% Inhibition” value is -11% and the Z score is on record as 2.2.
The like results for `CCCNC(=O)NC(=O)COc1cc(C)ccc1C` were, in that order, -4% and 0.49.
The like results for `COc1ccc(S(=O)(=O)N2CCC3(CCC(=O)N3C)CC2)cc1Cl` were, in that order, -1% and 0.17.
The like results for `O=C(NCC1(c2ccsc2)CCOCC1)C1CCC1` were, in that order, 5% and -0.85.
As for `CN1C(=O)[C@@]23CCCCN2C[C@@]12C[C@@]1(C(=O)Nc4c1ccc1c4OC=CC(C)(C)O1)C(C)(C)[C@@H]2C3`, the “% Inhibition” value came to 30% and the Z score is given as -3.44.
The matching figures for `N#Cc1cnn(C(=O)c2cccc(S(=O)(=O)Nc3cccc(Cl)c3)c2)c1N`: 0% and 0.03.
The like results for `c1ccc(-c2c[nH]nc2N2CCOCC2)cc1` were, in that order, 35% and -2.21.
As for `Cn1c(-c2nccn2[C@H]2CC(=O)N(Cc3ccccc3)C2)nc2ccccc21`, the “% Inhibition” value was 4% and the Z score is -0.79.
The like results for `CN(C(=O)c1ccn(C)c(=O)c1)c1ccc(N2CCOCC2)nc1` were, in that order, -3% and 0.32.
The like results for `Cc1ccc2ncccc2c1-c1nccn1Cc1ccco1` were, in that order, -17% and 2.31.
The matching figures for `CCC(Oc1ccc2c(c1)C(c1ccccc1)N(C(C)=O)CC2)C(=O)NCC1CC1` (configuration not stated): -5% and 0.61.
As to `O=C(O)c1nnn(-c2ccccc2Cl)c1-c1ccccn1`, the “% Inhibition” value is reported as -10% and the Z score came to 1.12.
In the case of `COc1ccc(CNCC(=O)Nc2cnccn2)c(F)c1F`, the “% Inhibition” value was 16% and the Z score is on record as -2.18.
Consider `CC[C@H](C)n1nccc1NC(=O)c1csc2nc(C)cn12`, for which the “% Inhibition” value was -13% and the Z score is 1.9.
The like results for `CC(C)c1nc2c(NS(=O)(=O)c3cccs3)cccn2n1` were, in that order, 15% and -1.75.
The matching figures for `Cc1cnc(C(=O)N[C@H]2CCO[C@@H]2c2cc[nH]n2)cc1C`: 4% and -0.75.
The matching figures for `O=S(=O)(c1ccccc1Br)N1CCCN([C@H]2CCOC2)CC1`: -12% and 2.06.
`c1cncc(Oc2cccc(OCc3nnc4n3CCCCC4)c2)c1`: the “% Inhibition” value is recorded as -6% and the Z score was determined as 1.04.
The like results for `C[C@H]1CNc2c(C=S)c3ccccc3n2C1` were, in that order, -12% and 1.85.
As to `Fc1ccccc1C1(CN2CCc3[nH]ncc3C2)CC1`, the “% Inhibition” value was -10% and the Z score worked out at 1.96.
As for `CCOC(=O)c1csc(N(c2ccc(C(F)(F)F)cc2)c2ncc(C(F)(F)F)cc2Cl)n1`, the “% Inhibition” value amounted to 0% and the Z score turned out to be 0.01.
The matching figures for `NC(=O)C(NC(=O)C1CC2CCC1C2)c1cccc(Br)c1` (configuration not stated): -9% and 1.37.
The like results for `Cc1n[nH]c(CNc2ncnc3scnc23)c1C` were, in that order, -2% and 0.3.
The matching figures for `Cc1nncn1-c1cccc(NC(=O)[C@@H]2COCCN2CC2CCC2)c1`: -12% and 1.92.
For the compound `Cc1cnc(C2CN(C(=O)CCc3ccccc3)C2)n1CC1CC1`, the “% Inhibition” value is -13% and the Z score is 1.69.
`O=S(=O)(c1cccnc1)N1CCC[C@H](Cc2nc(C3CC3)no2)C1`: the “% Inhibition” value is 6% and the Z score is recorded as -0.78.
The like results for `O=C(c1nc2cnccc2s1)N1CCOC[C@@H]1CC1CC1` were, in that order, -2% and 0.19.
The matching figures for `Cc1ccc(OC2CCN(Cc3ccncc3)CC2)c(C(=O)NC2CCC2)c1`: 2% and -0.26.
The like results for `CCCCNC(=O)Cc1noc(-c2noc3c2CCCC3)n1` were, in that order, -18% and 1.52.
As for `Cc1ncsc1CCC(=O)N(C)CCN(C)C1CC1`, the “% Inhibition” value is -3% and the Z score was 0.33.
The matching figures for `O=C(c1cncc(F)c1)N1C2CCC1CC(n1cccn1)C2` (configuration not stated): -22% and 2.83.
The matching figures for `CN1CCC(N(C[C@H]2CCOC2)C(=O)c2cc(Cl)ccc2F)CC1`: -13% and 1.68.
The matching figures for `COc1ccc(CCNC(=O)[C@H]2CC(=O)N(C3CCCCCCC3)C2)cc1OC`: 0% and -0.02.
In the case of `Cn1c(CN2CCCC2)nnc1C1CCN(c2nc3ccccc3o2)CC1`, the “% Inhibition” value was -9% and the Z score was determined as 1.14.
The matching figures for `Cc1nc(N2CCCC2)c2c(C(=O)NCc3ccco3)c(C)oc2n1`: 7% and -1.15.
The like results for `CCNc1nc(N2CCCCC2)nc2c1cnn2C` were, in that order, 4% and -0.66.
The matching figures for `O=C1CCN(C(=O)c2ccc(Cl)cc2)c2ccccc21`: -9% and 1.24.
Regarding `Cn1c(Cn2cncn2)nnc1C1CCN(c2nccs2)CC1`, the “% Inhibition” value was -6% and the Z score amounted to 0.92.

Values taken from ChEMBL document CHEMBL4888484, “Replenishing the malaria drug discovery pipeline: Screening and hit evaluation of the MMV Hit Generation Library 1 (HGL1) against asexual blood stage Plasmodium falciparum ,using a nano luciferase reporter read-out” (2022).
